# Measurements reported in PubChem BioAssay AID1346428 (National Center for Advancing Translational Sciences (NCATS), 2018).
# “And” between values parts separate entries of the source, which are not always exact repeats. Identical values can stand only once. Hit rate of the full screen: of about 48,000 compounds, about 1,200 (2.5%) were called active. Inconclusive results (about 2%) are left out.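 Rule for the calls: active = activation of at least 60% and not above a set upper limit (about 1 call in 100 departs from these limits); inconclusive = activation of 40% to 60%, or above that upper limit; inactive = activation under 40%.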 Some of the results follow.
# Target: Probable G-protein coupled receptor 32 (Homo sapiens) (UniProt O75388)
# Test: qHTS for Agonists of Human Resolvin D1 Receptor DRV1; note: 0% is about no effect
# Details: CHO-K1 GPR32 beta-arrestin PathHunter luminescence, 90 min; at 76.9 µM; hits give high values; zero percent set by DMSO-only wells
# Outline: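 Beta-arrestin recruitment read-out: luminescence from complemented beta-Gal in CHO-K1 GPR32 PathHunter cells, measured 1 h after detection reagent at ambient temperature following 90 min compound exposure at 37 °C; DMSO served as basal (EC0) control.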
# Chain of UniProt O75388 (O75388 whole entry, looked up): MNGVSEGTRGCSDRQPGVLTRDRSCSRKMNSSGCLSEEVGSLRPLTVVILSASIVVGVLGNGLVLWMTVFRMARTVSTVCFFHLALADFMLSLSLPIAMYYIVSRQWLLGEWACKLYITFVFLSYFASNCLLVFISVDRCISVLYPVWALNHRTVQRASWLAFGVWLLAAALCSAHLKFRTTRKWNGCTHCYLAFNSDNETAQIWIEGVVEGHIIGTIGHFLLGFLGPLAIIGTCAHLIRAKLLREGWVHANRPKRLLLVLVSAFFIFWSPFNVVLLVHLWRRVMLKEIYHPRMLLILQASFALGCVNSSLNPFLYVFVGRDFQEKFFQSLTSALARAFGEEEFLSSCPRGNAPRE
row,SMILES,activation
1,COc1ccc(Cl)cc1S(=O)(=O)N1CCN(CC(=O)Nc2ccccc2C(F)(F)F)CC1,inactive: -6.78%
2,COc1cccc(NC(=O)Cn2c(=O)ccc3cc(S(=O)(=O)N4CCC(C)CC4)ccc32)c1,inactive: 0.145%
3,CCOc1ccc(-c2nnc(SCC(=O)NC(C)CC)nc2-c2ccc(OCC)c(OC)c2)cc1OC (configuration not stated),inactive: -12.5%
4,COc1ccc(-c2nc3ccccc3o2)cc1NC(=O)c1ccc(-c2ccc(Br)cc2)o1,inactive: -6.99%
5,Cc1nn(C)c(C)c1CCNC(=O)Nc1cccc(Cl)c1C,inactive: 24%
6,COc1ccc(Cn2cc(C(=O)c3ccc(F)cc3)c(=O)c3cc4c(cc32)OCCO4)cc1,inactive: 27.3%
7,COc1cc(C(=O)Nc2cccc(OCc3cc(=O)n4cc(C)sc4n3)c2)cc(OC)c1OC,inactive: 3.5%
8,CC(=O)Nc1nonc1-c1nnc(SCC(=O)Nc2cccc(C)c2C)n1-c1ccccc1,inactive: -12.4%
9,CCCCc1nn2c(=O)cc(COC(=O)c3ccco3)nc2s1,inactive: -15.2%
10,CCCCNc1ccc(-c2nc(-c3ccncc3)no2)cc1[N+](=O)[O-],inactive: 9.46%
11,CC1CCN(C(=O)Cn2cc(SCC(=O)Nc3ccccc3C(F)(F)F)c3ccccc32)CC1,inactive: -14%
12,Cc1cccc(NC(=O)C2CCCN(S(=O)(=O)c3c(C)n[nH]c3C)C2)c1 (configuration not stated),inactive: 13.4%
13,CCC(C(=O)Nc1ccccc1)n1nc(-c2cc(C)ccc2C)ccc1=O (configuration not stated),inactive: -16.4%
14,CCOc1ccc(-n2c(=O)c3c(C)c(C)sc3n(CC(=O)Nc3ccc(CC)cc3)c2=O)cc1,inactive: -5.61%
15,Cc1ccccc1Nc1c(-c2cccnc2)nc2cccc(C)n12,inactive: 0.297%
16,Cc1ccc(CN2C(=O)C(=O)c3cc(Br)cc(C)c32)cc1,inactive: -52.6%
17,CCN1C(=O)N(c2ccc(C(C)=O)cc2)S(=O)(=O)c2ccccc21,inactive: -4.11%
18,CSc1ccc(CCNC(=O)Cn2ncn3c(cc4ccccc43)c2=O)cc1,inactive: -3.36%
19,Cn1nc(-c2ccc(OCC(=O)Nc3ccc(Cl)cc3)cc2)c2ccccc2c1=O,inactive: -2.1%
20,CCN(C(=O)c1cc2c(=O)n(CC)c3ccccc3c2s1)c1cccc(C(F)(F)F)c1,inactive: 14.7%
21,COc1ccc(Br)cc1CNC(=O)c1cnc2sc(N3CCCCCC3)nn2c1=O,inactive: -13.4%

row,SMILES,activation
1,Cc1ccc2c(c1)cc1c(=O)n(CC(=O)NC(C)CCc3ccccc3)nc(C)n12 (configuration not stated),inactive: 2.74%
2,CC1CCN(c2ccc(-c3cccc(NS(=O)(=O)c4cccs4)c3)nn2)CC1,inactive: -9.8%
3,O=C(NCc1cccs1)c1ccc(CSc2nc3cccnc3n2Cc2ccc(F)cc2)cc1,inactive: -11.6%
4,COc1ccc(-c2nn(-c3ccc(F)cc3)c3c2cnc2cc4c(cc23)OCO4)cc1,inactive: -0.0814%
5,COc1ccccc1CNc1ccc(-c2nc(-c3ccccc3C)no2)cc1[N+](=O)[O-],inactive: -6.7%
6,CCc1ccccc1NC(=O)CSc1nc2n[nH]c(C)c2c(=N)n1-c1cccc(C)c1,inactive: -14.2%
7,Cn1c2c(c(=O)n(C)c1=O)C(c1ccccc1[N+](=O)[O-])CC(=O)N2 (configuration not stated),inactive: -21.1%
8,CC1CCn2c(nc3cc(C(=O)NCc4ccc(F)cc4)ccc32)C1 (configuration not stated),inactive: -11%
9,Cc1cc(C)cc(NC(=O)C2CCN(C(=O)c3cnn(-c4ccccc4)c3-n3cccc3)CC2)c1,inactive: 6.48%
10,CCOc1nc(NC(=O)NS(=O)(=O)Oc2cccc(Cl)c2)nc(-c2ccccc2)n1,inactive: 10.9%
11,O=C(Nc1ccc(F)c(F)c1)c1cc(S(=O)(=O)NCc2ccc3c(c2)OCO3)ccc1F,inactive: 35.3%
12,CCCCC(=O)Nc1nnc(SCc2cc(=O)n3cc(C)ccc3n2)s1,inactive: -8.28%
13,CCOC(=O)c1nn2c(C(F)(F)F)cc(-c3ccc(C)cc3)nc2c1Cl,inactive: -1.17%
14,Cc1ccc(CNC(=O)CSc2nc(=O)n(Cc3ccco3)c3c2CCC3)cc1,inactive: -2.21%
15,COc1ccc(-c2c(C#N)c(SCC(=O)Nc3ccc(C)cc3)nc(C)c2C(=O)Nc2ccccc2)cc1,inactive: -4.25%
16,COc1cccc(CNC(=O)CN2CCCN(Cc3ccccc3)S2(=O)=O)c1,inactive: 10.5%
17,Cc1ccn2c(Nc3ccc4c(c3)OCO4)c(-c3ccc(Cl)cc3)nc2c1,inactive: -18.7%
18,COc1ccc(C2=NC3(CCCCCC3)N(CC(=O)Nc3cccc(Cl)c3)C2=O)cc1,inactive: -43.9%
19,CC(C)(C)NCC(O)c1ccc(O)c(CO)c1 (configuration not stated),inactive: -1.33% and inactive: -7.91% and inactive: -8.85%
20,COc1ccc(C(=O)c2oc3ccccc3c2NC(=O)COc2ccc(C)cc2)cc1,inactive: -8.49%
21,CCN1CCN(c2c(S(=O)(=O)c3ccc(Cl)cc3)cnc3ccccc23)CC1,inactive: -13.4%

row,SMILES,activation
1,Cc1ccc(NC(=O)Cn2c(=O)n(CCCS(=O)(=O)C3CCCCC3)c(=O)c3ccccc32)cc1F,inactive: -9.16%
2,CC(NC(=O)c1ccc(Cn2c(=O)c3cccn3c3cccnc32)cc1)c1ccccc1 (configuration not stated),inactive: -19.6%
3,COc1ccc(S(=O)(=O)c2cc3cc(OC)ccc3oc2=O)cc1,inactive: -1.51%
4,[N-]=[N+]=Nc1ccc(C(=O)CSC[C@H](NC(=O)CC[C@H](N)C(=O)O)C(=O)NCC(=O)O)cc1,inactive: 1.43%
5,CCc1ccccc1NC(=O)N1CCc2cc(OC)c(OC)cc2C1CC(=O)OC (configuration not stated),inactive: -12.6%
6,Cc1ccc(C)c(Nc2nc3c(S(=O)(=O)c4ccc(Br)cc4)nnn3c3ccsc23)c1,inactive: -23%
7,Cn1c(=O)c2c(-c3ccccc3Cl)n(Cc3ccc(Cl)cc3)cc2n(C)c1=O,inactive: -14.4%
8,Cc1cccc(N2CCN(C(=O)CCC(=O)NNc3nc4ccccc4c4nc(C)nn34)CC2C)c1 (configuration not stated),inactive: -17.2%
9,CCC1CN(S(=O)(=O)c2ccc3c(c2)NC(=O)CC(=O)N3)c2cc(Cl)ccc2O1 (configuration not stated),inactive: -11.1%
10,CCN1CCN(c2cc(-c3ccc(F)cc3)c3c(n2)CCCCCC3)CC1,inactive: -0.798%
11,CCc1ccccc1NC(=O)CN1C(=O)COc2ccc(S(=O)(=O)Nc3ccccc3)cc21,inactive: -0.0377%
12,COc1cc(C2c3c(-c4c(C)cc(C)cc4O)n[nH]c3C(=O)N2CCCOC(C)C)cc(OC)c1OC (configuration not stated),inactive: 32.2%
13,COc1ccc(-c2nc3c(C#N)c[nH]n3c2NC2CCCC2)cc1,inactive: -27.6%
14,COc1ccccc1Cc1nc2ccccc2nc1SCC(=O)Nc1ccccc1C(F)(F)F,inactive: -10.8%
15,CCOc1ccc(CNCc2c(C(=O)O)n(Cc3ccc(OC)cc3)c3ccccc23)cc1,inactive: 5%
16,Cc1ccc(N2CC(c3nnc(Cc4ccccc4Cl)o3)CC2=O)cc1 (configuration not stated),inactive: -8.86%
17,COc1ccc(N(C(=O)c2ccc(Cl)cc2)S(=O)(=O)c2ccc(C)cc2)cc1,inactive: -10.4%
18,COc1ccc(S(=O)(=O)n2nc(-c3ccco3)nc2NCc2ccc(OC)c(OC)c2)cc1,inactive: -11.8%
19,O=C(CSc1cn(CCNC(=O)c2ccccc2F)c2ccccc12)Nc1ccc(F)cc1,active: 91.1%
20,COc1cccc(N2C(=O)CSC23C(=O)N(CC(=O)Nc2cccc(Cl)c2)c2ccccc23)c1 (configuration not stated),inactive: -14.8%
21,CCn1c(C)c(C)c2cc(C(=O)N3CCN(c4cccc(C)c4C)CC3)ccc21,inactive: -35.3%

row,SMILES,activation
1,COc1cccc(-n2c(-c3ccco3)nc3c(cnn3-c3ccc(Cl)cc3)c2=O)c1,inactive: -1.15%
2,COc1cc(CN(C(=O)COc2ccccc2Cl)c2ccccn2)cc(OC)c1OC,inactive: -15.3%
3,CCC(=O)Nc1ccc2nc(SCc3ccccc3)sc2c1,inactive: -9.7%
4,COc1ccc(CC(=O)Nc2cc(-c3nc4cccnc4s3)ccc2C)cc1,inactive: -20.1%
5,CCOC(=O)c1ccc(N2C(=O)c3n[nH]c(-c4cccs4)c3C2c2cccc(OC)c2)cc1 (configuration not stated),inactive: -9.82%
6,CCOc1ccc(-n2c(=O)c3c4c(sc3n(CC(=O)NC(C)CC)c2=O)CCC4)cc1 (configuration not stated),inactive: -14%
7,O=S(=O)(c1ccc(Cl)cc1)c1nnn2c1nc(NCc1cccs1)c1sccc12,inactive: -14.8%
8,COc1ccc(C)cc1NC(=O)CSc1nc(=O)[nH]c2c1CCCC2,inactive: -4.28%
9,CCC(CC)C(=O)N1CCc2cc(OC)c(OC)cc2C1COc1ccc(C(=O)OC)cc1 (configuration not stated),inactive: -16.7%
10,COc1ccc(-c2nnc(Nc3ccc(OC)c(C(N)=O)c3)c3ccccc23)cc1,inactive: -26.5%
11,CCS(=O)(=O)c1nc(S(=O)(=O)c2ccc(C)cc2)c(NC(C)c2ccccc2)s1 (configuration not stated),inactive: -22.7%
12,CCOc1ccc(-n2cc(-c3ccccc3)c3c(N4CCC(C)CC4)ncnc32)cc1,inactive: -39%
13,CCOc1ccccc1NC(=O)C(=O)c1cc(C)n(-c2ccc(F)cc2)c1C,inactive: 0.0694%
14,Cc1cc(C)cc(Nc2ncnc3onc(-c4ccc(F)cc4)c23)c1,inactive: -8.48%
15,Cc1ccc(Nc2c(-c3ccc(C)cc3)nc3ccc(C)cn23)cc1,inactive: -23.7%
16,Cc1ccc(S(=O)(=O)c2nc(-c3ccc(F)cc3)oc2SCC(=O)c2ccccc2)cc1,inactive: -18%
17,CCc1ccc2oc(-c3cccc(NC(=O)C(C)(C)Oc4ccc(Br)cc4)c3)nc2c1,inactive: -10.3%
18,CCc1ccc(S(=O)(=O)NCc2nc3cccnc3n2Cc2ccccc2Cl)cc1,inactive: -20.9%
19,CCCOc1ccc(CNC(=O)Cn2cc3c(n2)-c2c(oc(C(=O)N4CCOCC4)c2C)CC3)cc1,inactive: -9.04%
